Assay results: the supplement of paper PMC12217912
This is one part of the list. Sequences were assembled here from the parent chain. Inactive controls read about 0.05.

B1: TEV protease; numbered along this chain (parent)
chain: MGESLFKGPRDYNPISSSICHLTNESDGHTTSLYGIGFGPFIITNKHLFRRNNGTLVVQSLHGVFKVKDTTTLQQHLVDGRDMIIIRMPKDFPPFPQKLKFREPQREERICLVTTNFQTKSMSSMVSDTSCTFPSGDGIFWKHWIQTKDGQCGSPLVSTRDGFIVGIHSASNFTNTNNYFTSVPKNFMELLTNQEAQQWVSGWRLNADSVLWGGHKVFMVKPEEPFQPVKEATQL

Variants of: B1
Experiment: raw area under fraction-flipped curve 0-4 h after induction (AUC4h, not background-subtracted), DNA-recorder readout of cleavage of the substrate (dimensionless); higher = more cleavage of the substrate by the protease variant
Details: temperature: 34 °C; time window: 0-4 h after rhamnose induction
Experimental: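 In vivo DNA recorder in E. coli TOP10(DE3) ΔrhaA at 34 °C. Each TEVp single-site mutant (parent TEVp 0) is paired with a single-site variant of the 7-mer TEVs (canonical ENLYFQ|S). The substrate sits between flexible linkers in a Bxb1-sfGFP-TEVs-SsrA fusion, so cleavage stabilises Bxb1 and speeds flipping of a recombination array, read by NGS. The value is the raw area under the fraction-flipped curve over 0-4 h after rhamnose induction (AUC4h), with ≥20 reads per time point. It is not background-subtracted; inactive controls average about 0.047.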
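Also: Bxb1 expression induced with 0.2% (w/v) L-rhamnose at OD600 near 0.5, cultures sampled hourly, flipped fraction per protease–substrate barcode pair counted by paired-end Illumina sequencing.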

Variant	area with substrate ENLYAQS	area with substrate ENLYCQS	area with substrate ENLYDQS	area with substrate ENLYEQS	area with substrate ENLYGQS	area with substrate ENLYHQS	area with substrate ENLYIQS	area with substrate ENLYKQS	area with substrate ENLYLQS	area with substrate ENLYMQS	area with substrate ENLYNQS	area with substrate ENLYPQS	area with substrate ENLYQQS	area with substrate ENLYSQS	area with substrate ENLYTQS	area with substrate ENLYVQS	area with substrate ENLYWQS	area with substrate ENLYYQS	area with substrate ENLYRQS
S169D	0.0659	0.0728	0.0538	0.0603	0.0518	0.0584	0.0675	0.0609	0.0902	0.0463	0.0522	0.0632	0.0607	0.0481	0.101	0.0563	0.0618	0.0695	
Q234T	0.0873		0.0498	0.0668	0.101	0.0721		0.0651	0.0933	0.0907	0.0707	0.0865	0.054	0.0738	0.0674	0.117	0.0895		0.0641
V229E	0.074		0.0399	0.0766	0.0581	0.0724	0.0942	0.0687	0.0748	0.0878	0.0733	0.0643		0.0892		0.114		0.0747	0.0325
R102M	0.0733		0.0417	0.0614	0.0278	0.0465		0.0488		0.0565	0.0541	0.042	0.0671		0.0635	0.0605	0.0499	0.0369	0.0526
Y12N	0.0815			0.0688	0.0586	0.0571	0.16	0.09		0.0956	0.0668	0.07	0.065	0.0646			0.111	0.0358	0.002
Y179A	0.116	0.0528	0.0687	0.0575	0.0583	0.0478	0.072		0.0625	0.0523				0.0641				0.0525	0.0674
S171H	0.0688	0.0721	0.053	0.0625	0.0619	0.0569		0.0607		0.0745	0.0629	0.0704	0.0575	0.0801	0.0386	0.0686	0.0591	0.0398	0.0679
G37A	0.0816		0.0681	0.0629	0.0625	0.0668	0.132	0.0701	0.0776		0.0537	0.0903	0.0685			0.118	0.0651	0.0634	0.0598
G54A	0.0578	0.0718	0.06	0.0609	0.0639	0.0533	0.0944	0.049		0.0548	0.0544	0.0618	0.0677		0.0509	0.0725	0.0653		0.0601
G162R	0.0763	0.0745		0.0603	0.0537	0.0521	0.109	0.0436	0.0751	0.0749	0.0597	0.0675	0.041			0.0727		0.0544	0.0609
S17P	0.0637		0.0616	0.0634	0.0589	0.0619		0.0553		0.0797	0.0587	0.0688	0.054	0.0563		0.102			0.0582
P9C	0.101		0.0708	0.11	0.0691			0.0485			0.0625	0.059	0.075			0.048		0.0668	0.0558
